Inconclusive means that the source gave no clear call. Such entries were picked first, then a sample of the others. Potencies beside an inconclusive call are fits to weak or partial responses and may not hold up. Active and inactive are the calls of the source. Calls follow the shape of the dose curve; as a rule, active = well fitted curve in the direction sought with a large enough effect; inconclusive = small, poorly fitted or top-dose-only effect, or another doubt; inactive = no such curve, though single readings can be large; an effect the other way counts as inactive or inconclusive.
Experiments:
[1] = test system: Zika virus NS2B-NS3 protease (linked construct); experiment: Primary screen NINDS Rhodamine qHTS for Zika virus inhibitors (AID 1347160); also: nearly all actives have a fitted effect of over 55% in size
Method in brief: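 Kinetic fluorescence (Ex 480 nm, Em 540 nm) over 15 min with 1.5 microM Rhodamine110 peptide and 25 nM linked protease.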

[2] = OV-KATE Cancer Cell Toxicity qHTS against the NCATS CANVASS Library (AID 1347345)
Method in brief: (§1)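 Cells were seeded at 1000 per well, allowed 4 h at 37 degrees C/5% CO2, then pin-treated with an 11-point compound series. After 72 h, viability was read as CellTiter-Glo luminescence following 15min at room temperature.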

[3] = UWB1.289 Cancer Cell Toxicity qHTS against the NCATS CANVASS Library (AID 1347347); also: nearly all actives have a fitted effect of over 60% in size
Method in brief: as §1

[4] = Panc-1005 Cancer Cell Toxicity qHTS against the NCATS CANVASS Library (AID 1347349); also: nearly all actives have a fitted effect of over 60% in size
Method in brief: as §1

[5] = SW1088 Cancer Cell Toxicity qHTS against the NCATS CANVASS Library (AID 1347350); also: nearly all actives have a fitted effect of over 75% in size
Method in brief: as §1

[6] = U-118MG Cancer Cell Toxicity qHTS against the NCATS CANVASS Library (AID 1347351)
Method in brief: as §1

[7] = A2780 Cisplatin Sensitive Ovarian Cancer Cell Toxicity qHTS against the NCATS CANVASS Library (AID 1347353); also: nearly all actives have a fitted effect of over 60% in size
Method in brief: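 Seventy-two-hour exposure of cisplatin-sensitive A2780 ovarian cells to an 11-concentration qHTS series; cytotoxicity is inferred from loss of ATPLite luminescence. Bortezomib titration served as positive control.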

[8] = HEK-293 Cancer Cell Toxicity qHTS against the NCATS CANVASS Library (AID 1347355); also: nearly all actives have a fitted effect of over 65% in size
Method in brief: (§2)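 qHTS cytotoxicity: compounds tested in 11 concentrations on 1000 seeded cells per well over 72 h; bortezomib served as control; signal from CellTiter-Glo luminescence.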

[9] = KB-8-5-11 Cancer Cell Toxicity qHTS against the NCATS CANVASS Library (AID 1347364); conditions: activity change, negative = toxicity: at 46.1 µM (top of the series); also: nearly all actives have a fitted effect of over 75% in size
Method in brief: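 Natural products were titrated in 11 points onto KB-8-5-11 cells, 500 per well, and cytotoxicity was scored from CellTiter-Glo luminescence after 72 hr culture.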

[10] = qHTS for Hypoxia signaling pathway (HIF-1) antagonists against the NCATS CANVASS Library (AID 1347374); also: nearly all actives have a fitted effect of over 60% in size
Method in brief: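 HRE-bla ME-180 cells (2,000/well, 0.5% dialyzed FBS) were pre-incubated 5 h, then given an 11-point compound series plus CoCl2 (60 uM solution as added) for 17 h at 37C. CCF4 β-lactamase read (ex 405, em 460/530 nm) after 2 h at RT.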

[11] = qHTS for Antimalaria activity screened against the NCATS CANVASS Library (AID 1347380); also: nearly all actives have a fitted effect of over 40% in size
Method in brief: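 Growth inhibition of asexual erythrocytic P. falciparum Dd2 was quantified by SYBR Green DNA staining. Cultures grew 72 h with compound (11-point series) in hypoxic gas at 37C; lysis and staining lasted 18 h.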

[12] = qHTS for Activators of p53 Stress Response Pathway screened against the NCATS CANVASS Library (AID 1347388)
Method in brief: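 p53RE-bla HCT-116 cells (4000/well) were plated 5 h at 37C, exposed to compounds for 16 h at 37C over an 11-point concentration series, then loaded with CCF4 for 2 h at room temperature; 460/530 nm emission ratio read.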

[13] = Secretion counterscreen for inhibitors of the SERCaMP assay screened against the NCATS CANVASS Library (AID 1347390); conditions: SH-SY5Y constitutive GLuc secretion, luminescence, 20 h; activity change, negative = inhibition: at 76.6 µM (top of the series);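 also: light from luciferase secreted into medium read as a measure of general secretion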
Method in brief: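 Natural products are titrated in an 11-point series up to 77 uM onto SH-SY5Y-GLuc STOP cells for 20 h. Secreted reporter activity is measured as coelenterazine-driven luminescence, with Brefeldin A on each plate.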

[14] = qHTS for inhibitors of ER calcium dysfunction: SERCaMP assay screened against the NCATS CANVASS Library (AID 1347393); conditions: SH-SY5Y GLuc-SERCaMP (Gaussia luciferase released on ER calcium loss) secretion, thapsigargin, luminescence; activity change, negative = inhibition: at 76.6 µM (top of the series) unless noted; also: nearly all actives have a fitted effect of over 40% in size;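 as to activity change, negative = inhibition: lower secreted reporter signal means inhibitor of ER calcium depletion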
Method in brief: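 qHTS in SH-SY5Y reporter cells: 16 h compound pretreatment, 4 h thapsigargin, then secreted Gaussia luciferase measured by luminescence.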

[15] = qHTS for inhibitors of Wild type Zika virus screened against the NCATS CANVASS Library (AID 1347396)
Method in brief: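 Protection against wild-type Zika cytopathic effect is measured in African green monkey Vero 766 cells exposed to an 11-point compound series. Surviving cells are quantified by CellTiter Glo luminescence after 72 h.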

[16] = Viability qHTS for inhibitors of the SERCaMP assay screened against the NCATS CANVASS Library (AID 1347400); also: nearly all actives have a fitted effect of over 70% in size
Method in brief: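 Cytotoxicity counter-screen: ATP content (CellTiter-Glo luminescence) of SH-SY5Y-GLuc SERCaMP MJH297 cells after 48 h at 37C with compounds in an 11-point qHTS series.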

[17] = OV-SAHO Cancer Cell Toxicity qHTS against the NCATS CANVASS Library (AID 1347348); conditions: OV-SAHO viability, CellTiter-Glo luminescence, 72 h; series mostly up to 38.3 µM; also: nearly all actives have a fitted effect of over 55% in size
Method in brief: as §1

[18] = qHTS for activators of Nrf2/ARE signaling pathway screened against the NCATS CANVASS Library (AID 1347391); also: nearly all actives have a fitted effect of over 60% in size
Method in brief: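 Cells carrying an ARE-driven beta-lactamase reporter (HepG2 background) are dosed for 16 h, then stained with CCF4. Cell viability in the same wells is measured by CellTiter-Glo luminescence.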

[19] = UWB1.289-WTBRCA1 Cancer Cell Toxicity qHTS against the NCATS CANVASS Library (AID 1347354)
Method in brief: as §2

[20] = HPAF-II Cancer Cell Toxicity qHTS against the NCATS CANVASS Library (AID 1347346); also: nearly all actives have a fitted effect of over 55% in size
Method in brief: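 Cytotoxicity in HPAF-II pancreatic cancer cells: 72 h treatment across 11 concentrations, ATP-based CellTiter-Glo luminescence endpoint.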

Measured: Potency
Potency is read from the fitted curve at half-maximal effect; tags tell the direction and shape of the fitted curve.

CC[C@@H]1[C@H](C)[C@H](c2cc(OC)c(OC)cc2OC)[C@@H](C)[C@H](c2cc(OC)c(OC)cc2OC)[C@]12C=C(OC)C(=O)C=C2OC
inconclusive: [1] 49.3 µM [inhibitor, single point] | [2] 29.8 µM [cytotoxic, single point] | [3] 18.8 µM [cytotoxic, single point] | [4] 29.8 µM [cytotoxic, single point] | [6] 29.8 µM [cytotoxic, single point] | [7] 33.2 µM [cytotoxic, single point] | [9] 33.2 µM [cytotoxic, single point] | [10] 29.8 µM [inhibitor, single point] | [12] 23.4 µM [activator, partial curve, poor fit] | [13] 27.2 µM [inhibitor, partial curve, poor fit] | [14] 1.08 µM [inhibitor, full curve] | [15] 29.3 µM [inhibitor, single point] | [16] 67.8 µM [cytotoxic, single point]
active: [5] 21.1 µM | [8] 26.4 µM | [11] 2.98 µM

C/C=C1/CC[C@@H]2c3[nH]c4ccccc4c3CCN2C1
inconclusive: [3] 23.6 µM [cytotoxic, partial curve, poor fit] | [4] 16.8 µM [cytotoxic, partial curve] | [8] 18.7 µM [cytotoxic, partial curve] | [11] 0.0133 µM [cytotoxic, full curve] | [18] 20.9 µM [activator, partial curve, poor fit]
inactive: [1] | [2] | [17] | [5] | [7] | [12]

O=C1C[C@@H](c2ccc(O)c(-c3c(O)cc(O)c4c3O[C@H](c3ccc(O)cc3)CC4=O)c2)Oc2cc(O)cc(O)c21
active: [1] 4.84 µM
inconclusive: [3] 5.83 µM [cytotoxic, partial curve] | [11] 0.0026 µM [cytotoxic, full curve, poor fit] | [18] 14.5 µM [activator, single point]
inactive: [2] | [4] | [19]

CN1C(=O)[C@]23SS[C@@]1(C)C(=O)N2[C@H]1Nc2ccccc2[C@]1(c1c[nH]c2ccccc12)[C@@H]3O
inconclusive: [6] 1.19 µM [cytotoxic, full curve] | [19] 3.75 µM [cytotoxic, full curve, poor fit] | [11] 6.66 µM [cytotoxic, partial curve, poor fit] | [12] 5.24 µM [activator, partial curve, poor fit] | [15] 13.1 µM [inhibitor, partial curve]
active: [1] 49.3 µM | [2] 1.06 µM | [4] 0.668 µM | [8] 0.743 µM

O=C1CCC(=O)N(O)CCCCCNC(=O)CCC(=O)N(O)CCCCCNC(=O)CCC(=O)N(O)CCCCCN1
active: [7] 26.4 µM | [11] 4.72 µM
inactive: [9] | [14]
inconclusive: [1] 110 µM [inhibitor, partial curve, poor fit] | [2] 14.9 µM [cytotoxic, partial curve] | [3] 6.66 µM [cytotoxic, full curve] | [6] 11.9 µM [cytotoxic, partial curve] | [8] 33.2 µM [cytotoxic, single point] | [16] 38.1 µM [cytotoxic, partial curve]

C/C(=C\CC[C@@H](C)[C@H]1CC[C@]2(C)C3=CCC4C(C)(C)[C@@H](O)C[C@@H](O)[C@]4(C)C3[C@H](O)C[C@@]12C)CO (some centres undefined)
active: [1] 19.6 µM | [10] 14.9 µM
inactive: [6] | [19]
inconclusive: [20] 29.8 µM [cytotoxic, single point] | [3] 29.8 µM [cytotoxic, single point] | [17] 29.8 µM [cytotoxic, single point] | [4] 29.8 µM [cytotoxic, single point] | [5] 26.6 µM [cytotoxic, single point] | [7] 33.2 µM [cytotoxic, single point] | [8] 37.2 µM [cytotoxic, single point] | [9] 29.6 µM [cytotoxic, single point] | [11] 0.0033 µM [cytotoxic, full curve, poor fit] | [18] 9.33 µM [activator, full curve] | [14] 43.1 µM [inhibitor, single point] | [15] 36.9 µM [inhibitor, single point]

— PubChem BioAssay (NCATS)
